Data on 62 sequences can be found in the supplement of paper PMC10681739.

Over roughly 4,100 sequences, “arbitrary fluorescence units” has its median near 780; the highest 2% begin near 22,000. The list shows a part of the results.

For the assay, the target named is T1, ETS1 (UniProt P14921).
T1 sequence: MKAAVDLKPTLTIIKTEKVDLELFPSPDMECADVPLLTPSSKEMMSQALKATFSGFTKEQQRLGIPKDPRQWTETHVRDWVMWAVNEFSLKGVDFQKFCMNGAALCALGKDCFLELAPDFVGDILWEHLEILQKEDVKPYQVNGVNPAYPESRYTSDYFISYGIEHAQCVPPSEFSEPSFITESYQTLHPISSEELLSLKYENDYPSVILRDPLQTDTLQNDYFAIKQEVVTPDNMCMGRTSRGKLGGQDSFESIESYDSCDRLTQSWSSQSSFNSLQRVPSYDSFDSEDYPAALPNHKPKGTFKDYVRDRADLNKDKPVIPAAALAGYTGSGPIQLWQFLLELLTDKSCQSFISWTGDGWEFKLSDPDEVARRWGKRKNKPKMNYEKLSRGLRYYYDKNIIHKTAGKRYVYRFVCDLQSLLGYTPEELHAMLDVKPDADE
Description: ETS1 binding intensity (PBM fluorescence), ETS1 alone (arbitrary fluorescence units); higher = stronger binding. The settings on record: ETS1 concentration 1 nM; RUNX1 concentration 0 nM. An outline of the steps:
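Double-stranded Agilent 4 × 180k arrays held 36-bp genomic probes whose RUNX1 partner site was mutated, and these were incubated with 1 nM full-length recombinant human ETS1 in the absence of RUNX1 under standard PBM protocols. Bound protein was labelled with anti-ETS1 antibody (Cell Signaling Technology 14069) plus an Alexa488-conjugated secondary and read on a GenePix 4400A, with four spots printed per sequence. Binding level is reported as raw spot fluorescence intensity summarised over replicate spots.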
For the sequence CTAGTTTCCTGTGGCTGCTATGACAAATGACAACAG, the ETS1 binding intensity is 8190. Consider GTCTCGCACCGTGAACACTGAGCTGAACGGAAATGT, for which the ETS1 binding intensity was 433.

Turning to TCCTGCTTCCGCCTCCGCTGCAGCCTCTCCCGAAGA, the ETS1 binding intensity was determined as 8150. GGCTTCTTTTGGGGTGATACAGGGGCTTCCTCTTCG had an ETS1 binding intensity of 479. With CCAAATCCACTATCACTAATCATCTTCCTGTCATTC the figure was 748; with GCCGATGAGGAAGTGAGGGCCAAGCACACTGCTCAG, 938; with ACAGGAAGTCAGCTGAGTACCGAGCAAGGCGCATGC, 1710.

On to CGGGACAGCGACGGGCCAGGTGACCGGAAGAGGCCG, for which the ETS1 binding intensity is 1770. With TTGCGTCACGTCCGGCCTGCGAGTTAGCGCCCACTC, the ETS1 binding intensity was found to be 7820.

As to GGCCGAGGAAGGACCTGGTGTTTTGATGACGGCTGT, the ETS1 binding intensity is 311. Regarding TGCTCAGGATGTTTAAAAACAAATCCACGCGTCTAT, the ETS1 binding intensity amounted to 661. As for TGTTTACTTCCTGGAGGCACTTTGGCTTTTCTTTCT, the ETS1 binding intensity is 5630. With AGGTTCCAAACCCCAACCTGCAGCCGGAAGGGGGAC the figure was 531; with CTGAGACTCTCTGGTCTGCTTCCTTATCTAGGGGGA, 429; with GCACAGGAAAAGCTGCTTTCCGCGTGATAAATTCAA, 870. The sequence TCGCTTCCGGTGTCGGTTACAGACTGGGGTTGCCAT returned an ETS1 binding intensity of 30000. With GCGCCCGAATCCGCTGGCCCGGAAACCCCGAAACGT, the ETS1 binding intensity is 1080. For GCCCTCGGAGCCCCAACAACCTCCACTTCCGCCTCC, the ETS1 binding intensity came to 2180. The same measure for GCCACTTCCTGGAAAACAGTAATTATCACACGTCTC: 10600; for TCTGGCTTCCTGTCTTAATAGGGCTTTGGGGTGTGC: 13400; for TGACATGAGGTACAGCACGGCATCCCACATCCTGGA: 480.

In turn, TCCTGTAGCTTTGGGGTTCCTTGTTTCCTGGGCTGG yielded an ETS1 binding intensity of 431.

Regarding GCGTCCTTTGCTGTCTTTTGTCCACGTCCGGGTCAA, the ETS1 binding intensity came out at 580. GCCTGTTCCGTCCGCAGACTTCCTCTGGCAGCTGCT gave an ETS1 binding intensity of 1810. With GCTCTGGCGGAAGATGTCCCTTCGGTGCAGCTGCCG the figure was 592. The same measure for TTAGTAGGAACCCCAAGGCTCTCACAGGATAAACTG: 376; for AAGACAACATCCTGCCGGCACAGCCTGCTGGTTACT: 16400; for AAACTACTTCCCCATATCATCTGTAGCTTGCACAAC: 1180.

Sequence GTCGCCGCGCTCCGCTGAATCCGCGTTTCCGGGATT registered an ETS1 binding intensity of 1200. CTACAAACGGCTTCCTCCTGCCTAACCCCAACCTCA yielded an ETS1 binding intensity of 1270. GAAGGCGCACCGCCCCCCGCGCGCCGGGAAGCTCAC yielded an ETS1 binding intensity of 286. With TAGTCCGTCCGGGAACAGCGCAAAAGGGACCCCATG the figure was 505; with TGCCGGAAGCCCGCCAGGCACAGGACCAGCAGGGGT, 1720. With TGTTAATGCGCGATCTTGCTGTCCGTTTCCGAGATG the figure was 385; with CCGAAGAGGAAGCTCCACAGGACCTCCGCCGCCAGC, 694; with CTGGGGATGTGTGACACTCAGAGAAACTACAAGGTG, 574. With TGTCTGGCCACGGTAAGGGCGGAAAGGGTCTAGGTA the figure was 365.

Sequence TCCCTCCTTCCGCTCTGGTTTTGGGGTTGCTTGCTG showed an ETS1 binding intensity of 6220.

Sequence CTGTAGTTTCGGTGGCTGTGACGTCGGGAAGTAAGT came in with an ETS1 binding intensity of 404.

CTCCCCGGAACACGCGAGTCTCCTGTCGCTGTTCCA: the ETS1 binding intensity stood at 473.

Turning to ATAGACTCAGGAAGTGATTGTCGTAAGATTCTATAT, the ETS1 binding intensity worked out at 1510.

The sequence TGCCTGGAAGACGGAAGGCAGGTGGCTGGCTCTAGT registered an ETS1 binding intensity of 349.

TCCCCAGGAATACGACACACCACTTCCCCTACAACA: the ETS1 binding intensity came to 637.

Take CCTACCACTGAGGGCAGCGCTTCCGCTTTCCTCCTC: the ETS1 binding intensity was 2680. CGAAGTGCGCCGGTTGGAGCGGAAGCGCACGCCTGC showed an ETS1 binding intensity of 1410. Turning to CTACAGGAAGTTCGAACTGGGCGGAGCCCACTGCAG, the ETS1 binding intensity was found to be 5910. With AGGTCTTTTGCATCCTGCAGAACACCAGATGTGTCC the figure was 1140; with AGCTTGCCGGAAGCTGGTTGTTCGCTTCGGCGACCA, 4030; with GACGCAGGATGAGGTGGAGGTGTAGAATGGGGTGCT, 421. The same measure for TCCTCCGGATGCCCAGCGGCTGCTGAGATACCTCGG: 825; for AGCACCAGTGTTGTCTCTGCTTCCGGTCCTTATGGT: 7490.

Sequence TGCTTCTGAGGAAGTGATCTGTTGTCAAAGAAAGAA gave an ETS1 binding intensity of 679.

Regarding TCTCTTCCGTTCTCTGGTAGCTTTTTGGTAGCTTTG, the ETS1 binding intensity was 6790. The sequence TGCCGTATGTAGGTTGAGGGCATCCTGCTTCGCCAT showed an ETS1 binding intensity of 763. Take CGGGACAGCGGGCCGGAGTTTTGGCGGAAGAGGCCG: the ETS1 binding intensity came to 376. In turn, ACCTTCCTGGCCCTGGGAGCTGGTTTAAGGTTGCAG displayed an ETS1 binding intensity of 2790. With AAAAGGCACCAGGAAATGACAGCACCGAAGCACGCC the figure was 1670. The same measure for TTCAGGCGGCAAAGAACAGACCTGCAGGAGGAAATA: 404. The same measure for GTTTGGGGATTTCTGGTGTCAGGAAACACTTAAGAT: 578.

As for GCTAACGGAACCAGCACGCGGCCACCTCAGGAACCT, the ETS1 binding intensity came out at 368. In turn, ACCTCTCTCACTTCCTACCAGAGAACCCCAGCCAAG yielded an ETS1 binding intensity of 2790. For the sequence CTGCAGCGGGGAGTTGCTAGTACAGGAAAAGAGGTC, the ETS1 binding intensity stood at 451.
